These results are taken from PubChem BioAssay (EPA / NIEHS).

Molecules are shown by their SMILES. Not every entry of the source has a single result; some have several. Only these are listed. The source may hold further records. Results that share an entry are repeated measurements (runs, samples, wells, individuals or studies). Records with an inconclusive call do not appear. The calls were made as follows, unless noted: active = hit-call score of the fitted dose curve at least 0.9, where 1 is the maximum; inconclusive = response in the unintended direction; inactive = score below 0.9. A structure can be active in one record and inactive in another.

The target in assay [1] is Glucocorticoid receptor (Homo sapiens) (UniProt P04150). The assay can be described thus: NVS_NR_hGR: NovaScreen (NVS) Nuclear Receptor Binding Assay for human Glucocorticoid Receptor (GR) (AID 2283363).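 Also: activity is loss of specific radioligand binding signal relative to DMSO.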 Summed up: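 Single-readout cell-free binding: radioligand plus extracted receptor, 16-hour dosing, filter radiodetection; 25 uM duplicate primary, concentration series secondary.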
Chain of UniProt P04150 (P04150 whole entry, looked up): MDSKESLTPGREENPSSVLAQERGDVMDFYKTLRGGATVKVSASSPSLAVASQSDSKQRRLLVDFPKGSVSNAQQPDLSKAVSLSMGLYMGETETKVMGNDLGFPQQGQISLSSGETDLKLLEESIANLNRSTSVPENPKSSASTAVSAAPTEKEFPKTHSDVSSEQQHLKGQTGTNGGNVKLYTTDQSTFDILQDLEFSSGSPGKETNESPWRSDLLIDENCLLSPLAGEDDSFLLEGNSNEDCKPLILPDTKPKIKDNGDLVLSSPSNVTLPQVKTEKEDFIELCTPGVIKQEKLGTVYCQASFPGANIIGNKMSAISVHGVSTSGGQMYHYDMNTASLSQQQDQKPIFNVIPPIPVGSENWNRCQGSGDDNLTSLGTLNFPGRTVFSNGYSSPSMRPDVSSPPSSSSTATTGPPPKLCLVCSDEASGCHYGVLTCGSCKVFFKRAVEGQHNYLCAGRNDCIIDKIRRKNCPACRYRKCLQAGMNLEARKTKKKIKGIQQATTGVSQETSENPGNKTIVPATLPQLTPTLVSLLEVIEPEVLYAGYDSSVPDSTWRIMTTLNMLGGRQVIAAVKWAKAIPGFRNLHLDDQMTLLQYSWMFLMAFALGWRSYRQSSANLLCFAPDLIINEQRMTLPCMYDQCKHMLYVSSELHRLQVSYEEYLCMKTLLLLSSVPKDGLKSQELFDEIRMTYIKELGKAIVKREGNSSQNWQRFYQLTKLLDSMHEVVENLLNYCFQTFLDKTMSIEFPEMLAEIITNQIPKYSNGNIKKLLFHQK

Assay [2] addresses bovine Estrogen Receptor (ER), ESR1 (gene 407238) (UniProt P49884). The assay is described as follows: NVS_NR_bER: NovaScreen (NVS) Nuclear Receptor Binding Assay for bovine Estrogen Receptor (ER) (AID 2283345).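 Also: actives lower the bound radioligand count which means they displace the ER ligand.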 Summed up: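 Cell-free radioligand binding with bovine uterine membrane extracts, read 18 hours after dosing by scintillation counting. Loss of signal versus DMSO baseline indicates displacement. Primary screen run in duplicate at 25 uM, actives followed in concentration series.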
Chain of UniProt P49884 (P49884 whole entry, looked up): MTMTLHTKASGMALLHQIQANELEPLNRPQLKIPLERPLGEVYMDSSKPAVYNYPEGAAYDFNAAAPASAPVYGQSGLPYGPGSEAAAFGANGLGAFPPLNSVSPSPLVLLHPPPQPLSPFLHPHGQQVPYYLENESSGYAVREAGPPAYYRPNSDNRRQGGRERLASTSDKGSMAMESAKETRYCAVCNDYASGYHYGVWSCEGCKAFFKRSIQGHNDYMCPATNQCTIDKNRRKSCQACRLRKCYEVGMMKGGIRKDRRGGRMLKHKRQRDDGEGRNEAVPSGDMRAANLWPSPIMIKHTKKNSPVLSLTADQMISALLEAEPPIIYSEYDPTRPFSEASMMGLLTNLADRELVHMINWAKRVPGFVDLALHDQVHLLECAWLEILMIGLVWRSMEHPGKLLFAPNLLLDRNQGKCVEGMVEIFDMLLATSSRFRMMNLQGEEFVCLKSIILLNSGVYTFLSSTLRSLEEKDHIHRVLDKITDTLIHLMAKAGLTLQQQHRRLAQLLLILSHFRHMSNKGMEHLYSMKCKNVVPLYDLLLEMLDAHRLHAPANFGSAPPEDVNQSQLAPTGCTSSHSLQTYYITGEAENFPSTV

The target in assay [3] is Hypoxia-inducible factor 1-alpha (Homo sapiens) (UniProt Q16665). The assay is described as follows: ATG_HIF1a_CIS: Attagene CIS-FACTORIAL HepG2 Assay for human Hypoxia Inducible Factor 1 (HIF1A) (AID 2282951; active = hit-call score of the fitted dose curve at least 0.9, where 1 is the maximum; inactive = score below 0.9). The note with it: HepG2 Attagene cis-factorial HIF1a reporter transcription; actives raise or lower the signal. In a few lines: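 Fluorescence intensity of capillary-separated, 6-FAM-labelled reporter amplicons gives mRNA induction in HepG2 cells carrying transfected cis-promoter reporter units; cells exposed 24 h, responses fitted up or down from DMSO.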
Chain of UniProt Q16665 (Q16665 whole entry, looked up): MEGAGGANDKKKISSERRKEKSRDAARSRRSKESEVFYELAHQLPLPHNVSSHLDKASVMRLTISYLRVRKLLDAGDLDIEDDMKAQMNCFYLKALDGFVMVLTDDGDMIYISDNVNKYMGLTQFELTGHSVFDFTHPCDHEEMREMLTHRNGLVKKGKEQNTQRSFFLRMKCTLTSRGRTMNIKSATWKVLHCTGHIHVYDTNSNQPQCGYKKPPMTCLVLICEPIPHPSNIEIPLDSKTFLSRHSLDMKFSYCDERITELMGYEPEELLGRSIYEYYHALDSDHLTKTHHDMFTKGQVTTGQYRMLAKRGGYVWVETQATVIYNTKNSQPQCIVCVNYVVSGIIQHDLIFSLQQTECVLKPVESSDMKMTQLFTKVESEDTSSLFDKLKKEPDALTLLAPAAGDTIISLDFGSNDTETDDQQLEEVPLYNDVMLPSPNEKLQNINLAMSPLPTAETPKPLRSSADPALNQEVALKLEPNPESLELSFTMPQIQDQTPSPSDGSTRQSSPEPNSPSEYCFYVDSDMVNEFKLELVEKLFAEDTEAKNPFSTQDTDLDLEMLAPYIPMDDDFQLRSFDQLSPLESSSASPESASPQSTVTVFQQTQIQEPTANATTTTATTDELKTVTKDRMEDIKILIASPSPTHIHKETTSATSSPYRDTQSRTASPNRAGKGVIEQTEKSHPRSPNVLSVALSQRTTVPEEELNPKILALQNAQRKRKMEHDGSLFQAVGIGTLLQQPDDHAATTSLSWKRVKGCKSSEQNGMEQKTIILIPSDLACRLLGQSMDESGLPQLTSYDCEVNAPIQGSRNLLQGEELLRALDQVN

Assay [4] concerns the target Paired box protein Pax-6 (Homo sapiens) (UniProt P26367). The assay is described as follows: ATG_Pax6_CIS: Attagene CIS-FACTORIAL HepG2 Assay for human Paired Box 6 (PAX6) (AID 2282956; active = hit-call score of the fitted dose curve at least 0.9, where 1 is the maximum; inactive = score below 0.9). The settings on record: HepG2 CIS-FACTORIAL PAX6 reporter transcription, RNA readout; actives raise or lower the signal. In a few lines:
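Fluorescent RT-PCR products separated by capillary electrophoresis report PAX6-linked promoter mRNA in HepG2 cells 24 h post-dose. Curves fitted bidirectionally, DMSO as negative control.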

Assay [5] deals with rat Mineralocorticoid Receptor (MR), Nr3c2 (gene 25672) (UniProt P22199). The assay is described as follows: NVS_NR_rMR: NovaScreen (NVS) Nuclear Receptor Binding Assay for rat Mineralocorticoid Receptor (MR) (AID 2283355). In a few lines: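 Single-concentration duplicate screen (25 uM) of radioligand binding in adrenalectomized rat brain supernatant; scintillation detection 24 h after dosing. Positive and negative controls ran on each plate, and confirmed actives went to concentration-response.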

For assay [6], the target named is Nuclear receptor subfamily 1 group I member 2 (Homo sapiens) (UniProt O75469). The assay can be described thus: ATG_PXR_TRANS: Attagene TRANS-FACTORIAL HepG2 Assay for human Pregnane X Receptor (PXR) (AID 2283008). Summed up:
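HepG2 transfected (FuGene 6) with GAL4-UAS reporter units + PXR-Gal4 chimera; dosed 24 h. Total RNA → oligo(dT) RT → PCR → 6-FAM primer extension → HpaI cut → CE. Gain-of-signal vs DMSO.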

Assay [7] addresses human Retinoid X Receptor beta (RXRb), RXRB (gene 6257) (UniProt P28702). The assay is described as follows: ATG_RXRb_TRANS: Attagene TRANS-FACTORIAL HepG2 Assay for human Retinoid X Receptor beta (RXRb) (AID 2283013). Summed up: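 Read-out: reporter mRNA induction via RT-PCR plus capillary electrophoresis fluorescence, analysed as signal increase relative to DMSO. Cells were human HepG2, transiently transfected with GAL4-UAS reporter constructs and chimeric receptor-Gal4 fusions, dosed for 24 h.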
Chain of UniProt P28702 (P28702 whole entry, looked up, the tested form may be a part): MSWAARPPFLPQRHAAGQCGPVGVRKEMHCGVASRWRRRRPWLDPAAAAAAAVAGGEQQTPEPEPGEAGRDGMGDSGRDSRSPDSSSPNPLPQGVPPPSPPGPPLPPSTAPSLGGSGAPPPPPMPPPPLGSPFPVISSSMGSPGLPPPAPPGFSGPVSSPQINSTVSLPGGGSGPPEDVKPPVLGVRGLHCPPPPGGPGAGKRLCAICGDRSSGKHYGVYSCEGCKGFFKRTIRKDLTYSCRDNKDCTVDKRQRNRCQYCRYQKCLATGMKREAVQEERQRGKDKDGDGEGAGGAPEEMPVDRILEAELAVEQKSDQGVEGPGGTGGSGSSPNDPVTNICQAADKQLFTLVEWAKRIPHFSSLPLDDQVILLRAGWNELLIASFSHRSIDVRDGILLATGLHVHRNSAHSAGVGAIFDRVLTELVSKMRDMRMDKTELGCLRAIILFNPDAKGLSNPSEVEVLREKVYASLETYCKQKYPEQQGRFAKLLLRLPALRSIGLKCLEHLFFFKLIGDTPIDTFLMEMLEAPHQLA

Assay [8] deals with Estrogen receptor (Homo sapiens) (UniProt P03372). The assay can be described thus: NVS_NR_hER: NovaScreen (NVS) Nuclear Receptor Binding Assay for human Estrogen Receptor (ER) (AID 2283348). Summed up:
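Radiodetection of ligand displacement in a lysate-based, cell-free format using MCF7 extracts, read at 18 hours. Duplicate 25 uM primary testing, then concentration series for actives.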

Assay [9] is described as follows: ACEA_ER_80hr: ACEA Biosciences xCELLigence Real-Time Cell Analysis on Estrogen Receptor Agonism for Proliferation (AID 2282667). The note with it: T47D proliferation, impedance (xCELLigence), 80 h. Summed up:
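Real-time impedance growth kinetics of human T-47D breast cells read 80 h after dosing, gain-of-signal fitted relative to DMSO. Compounds: 1:4 serial series, top final concentration 100 uM, n = 2.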

Assay [10] in a line: ATG_E_Box_CIS: Attagene CIS-FACTORIAL HepG2 Assay for human Enhancer Box (E-box) (AID 2282936; active = hit-call score of the fitted dose curve at least 0.9, where 1 is the maximum; inactive = score below 0.9). The note with it: HepG2 E-box cis-reporter transcription, actives raise or lower the signal. Summed up: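 Measured 24 h post-dosing in HepG2 cells transfected with multiple cis-regulated reporter units, signal being reporter mRNA induction detected by fluorescent RT-PCR with capillary electrophoresis; gain or loss fitted against DMSO.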

Assay [11] in a line: ATG_ERE_CIS: Attagene CIS-FACTORIAL HepG2 Assay for Estrogen Response Element (ERE) (AID 2282940; active = hit-call score of the fitted dose curve at least 0.9, where 1 is the maximum; inactive = score below 0.9). The note with it: HepG2 ERE cis-reporter, Attagene RNA transcript; actives raise or lower the signal. In a few lines: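 Readout: reporter mRNA induction by RT-PCR, FAM-labelled primer extension, HpaI digestion and capillary electrophoresis, 24 h after dosing transfected HepG2 cells. Endogenous transcription factors act on cis-element-regulated reporters. Gain or loss fitted against DMSO.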

Assay [12] deals with Estrogen receptor (Homo sapiens) (UniProt P03372). The assay is described as follows: ATG_ERa_TRANS: Attagene TRANS-FACTORIAL HepG2 Assay for human Estrogen Receptor alpha (ERa) (AID 2282970). The settings on record: HepG2 Attagene TRANS ERa GAL4 reporter, mRNA. Summed up:
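Reporter transcripts were measured 24 h after dosing by RT-PCR with fluorescent primer extension and capillary electrophoresis. The system is transiently transfected HepG2 expressing exogenous NR-Gal4 chimeras driving GAL4-UAS reporters; DMSO is the baseline.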

Chain of UniProt P26367 (P26367 whole entry, looked up): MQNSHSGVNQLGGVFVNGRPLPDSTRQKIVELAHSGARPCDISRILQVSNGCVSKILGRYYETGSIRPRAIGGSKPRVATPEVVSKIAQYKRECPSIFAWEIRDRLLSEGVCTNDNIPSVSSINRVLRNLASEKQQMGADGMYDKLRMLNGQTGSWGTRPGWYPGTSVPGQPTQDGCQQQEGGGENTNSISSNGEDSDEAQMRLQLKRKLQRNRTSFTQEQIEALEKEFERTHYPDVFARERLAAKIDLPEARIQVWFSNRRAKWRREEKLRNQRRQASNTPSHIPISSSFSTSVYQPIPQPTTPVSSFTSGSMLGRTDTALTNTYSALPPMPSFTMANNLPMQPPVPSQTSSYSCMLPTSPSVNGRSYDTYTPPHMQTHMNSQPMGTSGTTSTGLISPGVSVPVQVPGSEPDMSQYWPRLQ
Chain of UniProt O75469 (O75469 whole entry, looked up, the tested form may be a part): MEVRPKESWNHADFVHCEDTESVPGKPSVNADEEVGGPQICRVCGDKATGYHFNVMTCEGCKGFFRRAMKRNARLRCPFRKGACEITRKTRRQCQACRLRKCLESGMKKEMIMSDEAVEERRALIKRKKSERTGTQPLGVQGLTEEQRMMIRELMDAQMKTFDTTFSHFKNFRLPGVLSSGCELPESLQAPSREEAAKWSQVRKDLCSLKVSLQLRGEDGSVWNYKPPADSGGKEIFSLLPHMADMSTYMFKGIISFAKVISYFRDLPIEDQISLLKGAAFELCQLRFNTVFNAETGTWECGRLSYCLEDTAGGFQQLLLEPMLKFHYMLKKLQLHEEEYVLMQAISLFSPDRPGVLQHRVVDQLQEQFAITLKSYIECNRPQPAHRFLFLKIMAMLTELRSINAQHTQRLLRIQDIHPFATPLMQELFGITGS
Chain of UniProt P03372 (P03372 whole entry, looked up, the tested form may be a part): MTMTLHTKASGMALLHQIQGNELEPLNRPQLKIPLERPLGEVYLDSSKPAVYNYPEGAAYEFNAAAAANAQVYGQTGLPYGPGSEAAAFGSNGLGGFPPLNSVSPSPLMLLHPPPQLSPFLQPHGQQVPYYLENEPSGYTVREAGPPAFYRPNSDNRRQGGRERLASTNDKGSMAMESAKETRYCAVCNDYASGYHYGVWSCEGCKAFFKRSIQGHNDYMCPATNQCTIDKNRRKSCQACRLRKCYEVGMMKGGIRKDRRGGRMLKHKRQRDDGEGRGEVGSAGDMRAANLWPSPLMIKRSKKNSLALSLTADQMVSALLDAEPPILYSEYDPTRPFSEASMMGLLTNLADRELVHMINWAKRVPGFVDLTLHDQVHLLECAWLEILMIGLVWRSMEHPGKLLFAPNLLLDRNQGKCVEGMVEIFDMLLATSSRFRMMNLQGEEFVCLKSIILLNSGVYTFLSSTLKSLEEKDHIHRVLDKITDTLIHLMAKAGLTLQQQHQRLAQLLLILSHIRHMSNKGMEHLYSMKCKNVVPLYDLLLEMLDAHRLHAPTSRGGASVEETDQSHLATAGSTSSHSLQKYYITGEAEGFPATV

On to `N[C@@H](Cc1cc(I)c(Oc2ccc(O)c(I)c2)c(I)c1)C(=O)O`, for which the AC50 entry in [1] is “active: 2.49 µM, 1.06 µM, 1.93 µM, 772 nM [separate samples]”.

Take `C[C@]12CC[C@@H]3c4ccc(O)cc4C[C@@H](CCCCCCCCCS(=O)CCCC(F)(F)C(F)(F)F)[C@H]3[C@@H]1CC[C@@H]2O` (stereo partly specified): the AC50 entry in assay [2] was “active: 31 nM, 1.02 µM, 369 nM, 6.43 µM [separate samples]”.

For the compound `CC(=O)S[C@@H]1CC2=CC(=O)CC[C@]2(C)[C@H]2CC[C@@]3(C)[C@@H](CC[C@@]34CCC(=O)O4)[C@H]12`, the AC50 result was “active: 38.4, 72.5, 22.5, 39.1 µM [separate samples]” in [3]; “active: 52.1, 75.4, 15.3, 46.5 µM [separate samples]” in assay [4]; “active: 5.96, 19, 7.26, 2.29 nM [separate samples]” in [5]; “active: 556, 153, 320, 183 nM [separate samples]” in [1].

As for `CC(C)CCCCCCc1ccc(O)cc1`, the AC50 entry is “active: 3.84, 2.78, 18.3, 3.06 µM [separate samples]” in assay [6]; “active: 1.65, 2.15, 4.87, 1.37 µM [separate samples]” in assay [7]; “active: 6.1, 1.29, 15.2, 14.6 µM [separate samples]” in assay [8].

`O=C(c1ccc(O)cc1O)c1ccc(O)cc1O`: the half-maximal activity concentration (AC50) entry in assay [2] is “active: 800, 334, 224, 613 nM [separate samples]”.

Consider `CC(=O)[C@H]1CC[C@H]2[C@@H]3CCC4=CC(=O)CC[C@]4(C)[C@H]3CC[C@]12C`, for which the AC50 entry in [9] was “active: 2.71 nM, 0.68 nM, 140 nM, 3.45 µM [separate samples]”; in assay [10], “active: 12.7, 13.6, 19.3, 100 µM [separate samples]”.

Take `C#C[C@]1(O)CC[C@H]2[C@@H]3CCC4=CC(=O)CC[C@@H]4[C@H]3CC[C@@]21CC`: the AC50 entry is “active: 148, 274, 189, 351, 554 nM [separate samples]” in assay [11]; “active: 127, 88.6, 393, 198, 81.1 nM [separate samples]” in assay [12]; “active: 3.24 µM, 877 nM, 11.8 nM, 2.11 µM, 1.17 µM [separate samples]” in assay [8]; “active: 24.5, 10.2, 11.5, 7.92 nM [separate samples]” in [1].

For orientation: AC50 means the midpoint of the concentration-response curve, whichever way the signal moves.
